# Measured values: the supplement of paper PMC8728848
# The other results are listed elsewhere or left out.
# B1: PitA (Streptococcus oralis), G3F8D8 (protein)
# chain: MNIRFDFKKVQIIARRLVTLLAILFLCAPISLLNADSTTEPQTTLHKTITPISGQDDKYELSLDITSKLGTETQTDPLDVVLVADLSGSMQNQDVQSFDGRTISRIDALKNTLRGTNGRKGLIDTILSNSNNRLSMVGFGGKIDNKKVDQYWDGNKWRLFRPYWPYERMTKYYDGVSPWDDANTILGWSNNARAAKTAVYNMSIAGGNSIGTESGIGTGTNIGAGLTLANQLMGSARSNAKKVVILLSDGFANMVYDANGYTIYNYNNEDPNIETAPQWFWDRLNNNLNSLSYSLAPTLDGFYSIKFRYSNNVDSITSLQYYMRQHNASIPNEIFSANDEDQLRDSFKDITDKILPLGIHHVSIKDVLSKYVQLLPNGSSEFRVVKEKDGSSEILIENQVTFDTKTTSEGLVEVTAKFSPNYSLEDGARYVLKFTVTSSQEALDAIAGDKKLEAGDAEGSDVNKLYSNKGASVTYSYGIGNSQTKTKEYSDNPTFKPSDPLTVPVEVEWQGVTGARTVITADQPSNVELKLVQKNKNGGSDNQDYRKTNVNVSKNVSNETRNFEKVAKGYQYDLIAPDVPAFTKEIKNVGTESKPSFKVIYKQLPSLTIKKVLEAENNLNKEFRIKVKLTSPDSKPLNGTFGEITVVNGEAEIRVEKRKRWEGILSYLPRGTHYKVEEEAASTNGYHVTYENQEGDLNKDETSIVTNHKLPSLSVTKKVTGVFANLLKSFKITINIRDAQNSPLNGTYTATVNNKRTPLQFTNGRASIDLNKDQTIKIYGLPLDSHYTVEEESNSSRGYQVSYENQEGKLDGDKSATVTNNKNSVPETGVDFLSSTLMLGIILPLGGIFFTILLGYLVVHRRK
# Legend:
# Test in all cases: glycan array binding signal (z-score within array); higher = stronger binding
# Conditions in all cases: glycan notation: IUPAC condensed, linker removed
# Fuc(a1-2)Gal = molecular target: Fuc(a1-2)Gal
# Method in brief: (§1)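 The binding signal is a Z-score computed within each array. Data were drawn from 3228 arrays in the Consortium for Functional Glycomics database, restricted to those with a known protein sequence. Scores were averaged over arrays of the same protein sequence at different concentrations or buffers, and over linkers, and negative values can be taken as non-binding.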
# Fuc(a1-2)Gal(b1-3)GalNAc = molecular target: Fuc(a1-2)Gal(b1-3)GalNAc
# Method in brief: as §1
# [1] = molecular target: Fuc(a1-2)Gal(b1-3)GalNAc(a1-3)[Fuc(a1-2)]Gal(b1-4)Glc
# Method in brief: as §1
# [2] = molecular target: Fuc(a1-2)Gal(b1-3)GalNAc(a1-3)[Fuc(a1-2)]Gal(b1-4)GlcNAc
# Method in brief: as §1
# [3] = molecular target: Fuc(a1-2)Gal(b1-3)GalNAc(b1-3)Gal
# Method in brief: as §1
# [4] = molecular target: Fuc(a1-2)Gal(b1-3)GalNAc(b1-3)Gal(a1-4)Gal(b1-4)Glc
# Method in brief: as §1
# [5] = molecular target: Fuc(a1-2)Gal(b1-3)GalNAc(b1-4)[Neu5Ac(a2-3)]Gal(b1-4)Glc
# Method in brief: as §1
# Fuc(a1-2)Gal(b1-3)GlcNAc = molecular target: Fuc(a1-2)Gal(b1-3)GlcNAc
# Method in brief: as §1
# [6] = molecular target: Fuc(a1-2)Gal(b1-3)GlcNAc(b1-2)Man(a1-3)[Fuc(a1-2)Gal(b1-3)GlcNAc(b1-2)Man(a1-6)]Man(b1-4)GlcNAc(b1-4)GlcNAc
# Method in brief: as §1
# [7] = molecular target: Fuc(a1-2)Gal(b1-3)GlcNAc(b1-2)Man(a1-3)[Fuc(a1-2)Gal(b1-3)GlcNAc(b1-2)Man(a1-6)]Man(b1-4)GlcNAc(b1-4)[Fuc(a1-6)]GlcNAc
# Method in brief: as §1
# [8] = molecular target: Fuc(a1-2)Gal(b1-3)GlcNAc(b1-3)Gal(b1-4)Glc
# Method in brief: as §1
# [9] = molecular target: Fuc(a1-2)Gal(b1-3)GlcNAc(b1-3)GalNAc
# Method in brief: as §1
# [10] = molecular target: Fuc(a1-2)Gal(b1-3)GlcNAc(b1-3)[Fuc(a1-2)Gal(b1-3)GlcNAc(b1-6)]GalNAc
# Method in brief: as §1
# [11] = molecular target: Fuc(a1-2)Gal(b1-3)GlcNAc(b1-3)[Fuc(a1-3)[Gal(b1-4)]GlcNAc(b1-6)]Gal(b1-4)Glc
# Method in brief: as §1
# [12] = molecular target: Fuc(a1-2)Gal(b1-3)GlcNAc(b1-3)[Gal(b1-4)GlcNAc(b1-6)]Gal(b1-4)Glc
# Method in brief: as §1
# [13] = molecular target: Fuc(a1-2)Gal(b1-3)GlcNAc(b1-3)[Neu5Ac(a2-6)Gal(b1-4)GlcNAc(b1-6)]Gal(b1-4)Glc
# Method in brief: as §1
# [14] = molecular target: Fuc(a1-2)Gal(b1-3)GlcNAc6S
# Method in brief: as §1
# [15] = molecular target: Fuc(a1-2)Gal(b1-3)[Fuc(a1-4)]GlcNAc
# Method in brief: as §1
# [16] = molecular target: Fuc(a1-2)Gal(b1-3)[Fuc(a1-4)]GlcNAc(b1-2)Man(a1-3)[Fuc(a1-2)Gal(b1-3)[Fuc(a1-4)]GlcNAc(b1-2)Man(a1-6)]Man(b1-4)GlcNAc(b1-4)GlcNAc
# Method in brief: as §1
# [17] = molecular target: Fuc(a1-2)Gal(b1-3)[Fuc(a1-4)]GlcNAc(b1-2)Man(a1-6)[Fuc(a1-2)Gal(b1-3)[Fuc(a1-4)]GlcNAc(b1-2)Man(a1-3)]Man(b1-4)GlcNAc(b1-4)[Fuc(a1-6)]GlcNAc
# Method in brief: as §1
# [18] = molecular target: Fuc(a1-2)Gal(b1-3)[Fuc(a1-4)]GlcNAc(b1-3)[Fuc(a1-3)[Gal(b1-4)]GlcNAc(b1-6)]Gal(b1-4)Glc
# Method in brief: as §1
# [19] = molecular target: Fuc(a1-2)Gal(b1-3)[Fuc(a1-4)]GlcNAc(b1-3)[Gal(b1-4)GlcNAc(b1-6)]Gal(b1-4)Glc
# Method in brief: as §1
# Fuc(a1-2)Gal(b1-4)Glc = molecular target: Fuc(a1-2)Gal(b1-4)Glc
# Method in brief: as §1
# Fuc(a1-2)Gal(b1-4)Glc6S = molecular target: Fuc(a1-2)Gal(b1-4)Glc6S
# Method in brief: as §1
# Fuc(a1-2)Gal(b1-4)GlcNAc = molecular target: Fuc(a1-2)Gal(b1-4)GlcNAc
# Method in brief: as §1
# [20] = molecular target: Fuc(a1-2)Gal(b1-4)GlcNAc(b1-2)Man
# Method in brief: as §1
# [21] = molecular target: Fuc(a1-2)Gal(b1-4)GlcNAc(b1-2)Man(a1-3)[Fuc(a1-2)Gal(b1-4)GlcNAc(b1-2)Man(a1-6)]Man(b1-4)GlcNAc(b1-4)GlcNAc
# Method in brief: as §1
# [22] = molecular target: Fuc(a1-2)Gal(b1-4)GlcNAc(b1-2)Man(a1-3)[Fuc(a1-2)Gal(b1-4)GlcNAc(b1-2)Man(a1-6)]Man(b1-4)GlcNAc(b1-4)[Fuc(a1-6)]GlcNAc
# Method in brief: as §1
# [23] = molecular target: Fuc(a1-2)Gal(b1-4)GlcNAc(b1-2)[Fuc(a1-2)Gal(b1-4)GlcNAc(b1-4)]Man(a1-3)[Fuc(a1-2)Gal(b1-4)GlcNAc(b1-2)Man(a1-6)]Man(b1-4)GlcNAc(b1-4)GlcNAc
# Method in brief: as §1
# [24] = molecular target: Fuc(a1-2)Gal(b1-4)GlcNAc(b1-3)Gal(b1-4)GlcNAc
# Method in brief: as §1
# [25] = molecular target: Fuc(a1-2)Gal(b1-4)GlcNAc(b1-3)Gal(b1-4)GlcNAc(b1-3)Gal(b1-4)GlcNAc
# Method in brief: as §1
# [26] = molecular target: Fuc(a1-2)Gal(b1-4)GlcNAc(b1-3)GalNAc
# Method in brief: as §1
# [27] = molecular target: Fuc(a1-2)Gal(b1-4)GlcNAc(b1-3)[Fuc(a1-2)Gal(b1-4)GlcNAc(b1-6)]GalNAc
# Method in brief: as §1
# [28] = molecular target: Fuc(a1-2)Gal(b1-4)GlcNAc(b1-6)GalNAc
# Method in brief: as §1
# [29] = molecular target: Fuc(a1-2)Gal(b1-4)GlcNAc6S
# Method in brief: as §1
# [30] = molecular target: Fuc(a1-2)Gal(b1-4)[Fuc(a1-3)]GlcNAc
# Method in brief: as §1
# [31] = molecular target: Fuc(a1-2)Gal(b1-4)[Fuc(a1-3)]GlcNAc(b1-2)Man(a1-3)[Fuc(a1-2)Gal(b1-4)[Fuc(a1-3)]GlcNAc(b1-2)Man(a1-6)]Man(b1-4)GlcNAc(b1-4)GlcNAc
# Method in brief: as §1
# [32] = molecular target: Fuc(a1-2)Gal(b1-4)[Fuc(a1-3)]GlcNAc(b1-2)Man(a1-6)[Fuc(a1-2)Gal(b1-4)[Fuc(a1-3)]GlcNAc(b1-2)Man(a1-3)]Man(b1-4)GlcNAc(b1-4)[Fuc(a1-6)]GlcNAc
# Method in brief: as §1
# [33] = molecular target: Fuc(a1-2)Gal(b1-4)[Fuc(a1-3)]GlcNAc(b1-2)[Fuc(a1-2)Gal(b1-4)[Fuc(a1-3)]GlcNAc(b1-4)]Man(a1-3)[Fuc(a1-2)Gal(b1-4)[Fuc(a1-3)]GlcNAc(b1-2)Man(a1-6)]Man(b1-4)GlcNAc(b1-4)GlcNAc
# Method in brief: as §1
# [34] = molecular target: Fuc(a1-2)Gal(b1-4)[Fuc(a1-3)]GlcNAc(b1-3)Gal(b1-4)[Fuc(a1-3)]GlcNAc
# Method in brief: as §1
# [35] = molecular target: Fuc(a1-2)Gal(b1-4)[Fuc(a1-3)]GlcNAc(b1-3)Gal(b1-4)[Fuc(a1-3)]GlcNAc(b1-3)Gal(b1-4)[Fuc(a1-3)]GlcNAc
# Method in brief: as §1
# [36] = molecular target: Fuc(a1-2)Gal(b1-4)[Fuc(a1-3)]GlcNAc(b1-3)GalNAc
# Method in brief: as §1
# [37] = molecular target: Fuc(a1-2)Gal(b1-4)[Fuc(a1-3)]GlcNAc(b1-3)[Neu5Ac(a2-6)Gal(b1-4)GlcNAc(b1-6)]Gal(b1-4)Glc
# Method in brief: as §1
# [38] = molecular target: Fuc(a1-2)Gal6S(b1-3)GlcNAc
# Method in brief: as §1
# [39] = molecular target: Fuc(a1-2)Gal6S(b1-3)GlcNAc6S
# Method in brief: as §1
binder,measurement,setting,value
B1,glycan array binding signal (z-score),Fuc(a1-2)Gal,-0.413
same,glycan array binding signal (z-score),Fuc(a1-2)Gal(b1-3)GalNAc,-0.353
same,glycan array binding signal (z-score),[1],0.693
same,glycan array binding signal (z-score),[2],-0.581
same,glycan array binding signal (z-score),[3],10.3
same,glycan array binding signal (z-score),[4],0.526
same,glycan array binding signal (z-score),[5],-0.333
same,glycan array binding signal (z-score),Fuc(a1-2)Gal(b1-3)GlcNAc,-0.638
same,glycan array binding signal (z-score),[6],0.06
same,glycan array binding signal (z-score),[7],1.39
same,glycan array binding signal (z-score),[8],-0.345
same,glycan array binding signal (z-score),[9],-0.459
same,glycan array binding signal (z-score),[10],0.672
same,glycan array binding signal (z-score),[11],-0.254
same,glycan array binding signal (z-score),[12],-0.458
same,glycan array binding signal (z-score),[13],-0.587
same,glycan array binding signal (z-score),[14],-0.05
same,glycan array binding signal (z-score),[15],-0.238
same,glycan array binding signal (z-score),[16],-0.211
same,glycan array binding signal (z-score),[17],2.26
same,glycan array binding signal (z-score),[18],-0.688
same,glycan array binding signal (z-score),[19],-0.491
same,glycan array binding signal (z-score),Fuc(a1-2)Gal(b1-4)Glc,-0.507
same,glycan array binding signal (z-score),Fuc(a1-2)Gal(b1-4)Glc6S,-0.326
same,glycan array binding signal (z-score),Fuc(a1-2)Gal(b1-4)GlcNAc,-0.676
same,glycan array binding signal (z-score),[20],-0.365
same,glycan array binding signal (z-score),[21],0.147
same,glycan array binding signal (z-score),[22],1.5
same,glycan array binding signal (z-score),[23],2.11
same,glycan array binding signal (z-score),[24],-0.256
same,glycan array binding signal (z-score),[25],-0.384
same,glycan array binding signal (z-score),[26],0.053
same,glycan array binding signal (z-score),[27],2
same,glycan array binding signal (z-score),[28],0.185
same,glycan array binding signal (z-score),[29],-0.17
same,glycan array binding signal (z-score),[30],-0.371
same,glycan array binding signal (z-score),[31],0.076
same,glycan array binding signal (z-score),[32],1.99
same,glycan array binding signal (z-score),[33],2.19
same,glycan array binding signal (z-score),[34],-0.469
same,glycan array binding signal (z-score),[35],0.844
same,glycan array binding signal (z-score),[36],7.27
same,glycan array binding signal (z-score),[37],-0.634
same,glycan array binding signal (z-score),[38],-0.656
same,glycan array binding signal (z-score),[39],0.003
